Measured values as given in the supplement of paper PMC7826260.
The list shows a part of the results. Viral Rep nickase domains cut single-stranded DNA in vitro (1 h at 37 °C, 3 µM enzyme); the outer parts of the 90-letter strands are left off. The score is log2 (uncut reads / reads without enzyme); strong cutting gives strongly negative numbers. There is no active / inactive call. Because reads are shares of a total, they shift together; values above 0 arise when much of the pool is cut.

How the values were obtained:
Assay in all cases: uncleaved DNA left, log2 of reads against the no-enzyme library (log2 ratio); higher = less cleavage (more negative = more Rep cleavage of the k-mer); sequences stand for … in CTCGTCCG…ACCGGAGA
[1] = test system: T1, Rep nickase domain of Muscovy duck circovirus
T1 sequence (residues 1-111, tag not shown): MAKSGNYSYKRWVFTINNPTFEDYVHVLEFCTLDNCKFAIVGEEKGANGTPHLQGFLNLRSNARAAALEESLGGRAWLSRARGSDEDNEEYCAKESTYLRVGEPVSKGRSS
Method: (§1)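 A pool of 90-nt single-stranded DNAs with seven random bases just before the constant AC of the nick site (name = the seven bases) was cut by 3 µM recombinant His6-SUMO-tagged Rep nickase domain (300 nM DNA, 50 mM HEPES pH 8.0, 50 mM NaCl, 1 mM MnCl2, 1 h, 37 °C, three replicates). Uncut DNA was amplified and sequenced.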

[2] = test system: T2, Rep nickase domain of banana bunchy top virus
T2 sequence (residues 1-94, tag not shown): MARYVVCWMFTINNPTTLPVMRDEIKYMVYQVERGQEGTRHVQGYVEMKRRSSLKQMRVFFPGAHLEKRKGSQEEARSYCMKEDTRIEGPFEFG
Method: as §1

[3] = test system: T3, Rep nickase domain of cabbage leaf curl virus
T3 sequence (residues 1-116, tag not shown): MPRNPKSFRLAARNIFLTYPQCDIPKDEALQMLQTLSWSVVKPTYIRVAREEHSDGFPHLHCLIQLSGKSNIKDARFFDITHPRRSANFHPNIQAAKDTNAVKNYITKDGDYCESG
Method: as §1

[4] = test system: T4, Rep nickase domain of chickpea chlorotic dwarf virus
T4 sequence (residues 1-124, tag not shown): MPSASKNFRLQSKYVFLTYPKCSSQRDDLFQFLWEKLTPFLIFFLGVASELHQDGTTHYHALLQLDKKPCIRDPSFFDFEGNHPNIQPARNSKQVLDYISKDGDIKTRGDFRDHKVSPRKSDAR
Method: as §1

[5] = test system: T5, Rep nickase domain of faba bean necrotic yellows virus
T5 sequence (residues 1-98, tag not shown): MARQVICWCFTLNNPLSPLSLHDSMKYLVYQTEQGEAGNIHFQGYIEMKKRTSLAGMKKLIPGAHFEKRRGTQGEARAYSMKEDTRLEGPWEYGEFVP
Method: as §1

[6] = test system: T6, Rep nickase domain of maize striate mosaic virus
T6 sequence (residues 1-117, tag not shown): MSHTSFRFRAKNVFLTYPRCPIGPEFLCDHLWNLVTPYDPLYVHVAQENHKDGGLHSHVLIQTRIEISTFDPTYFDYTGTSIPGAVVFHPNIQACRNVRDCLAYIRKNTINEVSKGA
Method: as §1

[7] = test system: T7, Rep nickase domain of porcine circovirus 2
T7 sequence (residues 2-116, tag not shown): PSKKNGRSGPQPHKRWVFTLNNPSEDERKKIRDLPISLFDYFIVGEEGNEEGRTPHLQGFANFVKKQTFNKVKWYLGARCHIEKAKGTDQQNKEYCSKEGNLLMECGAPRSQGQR
Method: as §1

[8] = test system: T8, Rep nickase domain of tomato golden mosaic virus
T8 sequence (residues 1-124, tag not shown): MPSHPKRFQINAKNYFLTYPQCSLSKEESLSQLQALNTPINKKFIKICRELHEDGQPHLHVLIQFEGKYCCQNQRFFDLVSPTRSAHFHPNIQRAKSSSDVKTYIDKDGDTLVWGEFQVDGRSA
Method: as §1

[9] = test system: T9, Rep nickase domain of tomato yellow leaf curl virus
T9 sequence (residues 1-136, tag not shown): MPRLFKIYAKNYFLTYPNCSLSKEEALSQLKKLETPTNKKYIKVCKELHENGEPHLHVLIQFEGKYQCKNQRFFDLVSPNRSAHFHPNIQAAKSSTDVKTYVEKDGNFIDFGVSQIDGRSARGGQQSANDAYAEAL
Method: as §1

[10] = test system: T10, Rep nickase domain of wheat dwarf virus
T10 sequence (residues 1-137, tag not shown): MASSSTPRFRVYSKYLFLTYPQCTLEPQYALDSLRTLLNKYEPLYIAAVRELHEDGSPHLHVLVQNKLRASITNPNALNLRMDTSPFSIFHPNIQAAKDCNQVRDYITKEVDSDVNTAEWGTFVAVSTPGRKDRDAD
Method: as §1

Row | Sequence | uncleaved DNA left (log2) [1] | uncleaved DNA left (log2) [2] | uncleaved DNA left (log2) [3] | uncleaved DNA left (log2) [4] | uncleaved DNA left (log2) [5] | uncleaved DNA left (log2) [6] | uncleaved DNA left (log2) [7] | uncleaved DNA left (log2) [8] | uncleaved DNA left (log2) [9] | uncleaved DNA left (log2) [10]
1 | TATCTCG | 0.0079 | 0.0266 | -0.68 | -0.568 | 0.237 | -1.04 | 0.251 | -0.0346 | -0.00329 | 0.0765
2 | TGAGGGA | 0.00873 | -0.0222 | 0.433 | 0.978 | 0.0811 | 0.952 | 0.11 | 0.113 | 0.0308 | 0.0803
3 | TCGTAGG | 0.115 | 0.0434 | 0.399 | 1.04 | -0.0018 | 1.24 | 0.0679 | -0.0149 | -0.0809 | 0.0667
4 | ATTGTCT | -0.119 | -0.195 | -0.568 | -1.99 | 0.0495 | -1.27 | -1.29 | -0.0726 | -0.106 | -0.0752
5 | GCTCGCT | 0.0175 | 0.128 | 0.111 | 0.292 | 0.0422 | -0.429 | 0.0133 | 0.153 | 0.252 | 0.0602
6 | GGCAACC | 0.196 | 0.144 | 0.621 | 1.1 | 0.0762 | 1.73 | -0.767 | 0.0815 | 0.101 | 0.166
7 | ATTTAGA | 0.152 | 0.0559 | -0.107 | -0.129 | 0.0641 | -0.884 | 0.089 | 0.127 | 0.109 | 0.0656
8 | CGCAAAC | 0.00337 | 0.00541 | -0.156 | -0.162 | -0.052 | -0.612 | -0.0776 | -0.0762 | -0.0127 | 0.00509
9 | TCGGTTC | -0.171 | 0.0336 | 0.312 | -0.0276 | -0.0878 | 0.665 | 0.0945 | -0.023 | -0.0818 | -0.0341
10 | CCAAGAA | -0.0446 | 0.021 | 0.0519 | 0.268 | -0.0179 | -0.156 | 0.153 | 0.0191 | -0.138 | -0.0429
11 | TAGGAGT | -0.0907 | -0.0706 | 0.302 | 0.558 | -0.112 | 1.06 | -0.527 | 0.0186 | -0.0876 | -0.0479
12 | GATTCTC | -1.74 | -0.948 | 0.28 | 0.603 | -0.00408 | 0.879 | -1.54 | -0.0384 | 0.0254 | 0.0819
13 | TTGGACG | 0.135 | 0.0685 | -0.314 | -0.281 | -0.0695 | -1.03 | 0.0342 | 0.0237 | 0.0714 | -0.00475
14 | TTGACAT | 0.0694 | 0.0537 | 0.877 | 1.97 | 0.00123 | 2.15 | 0.201 | 0.0294 | 0.0302 | 0.113
15 | AGCACCG | -0.0143 | -0.0162 | -0.402 | -0.43 | -0.0289 | -0.675 | 0.0406 | -0.0441 | -0.0662 | -0.08
16 | CGCGCTG | -0.115 | -0.0805 | -0.0144 | 0.548 | -0.0334 | 1.51 | -0.0567 | 0.0145 | -0.148 | -0.0707
17 | CTTCCCC | -0.3 | -0.223 | 0.0605 | -0.431 | -0.233 | -0.387 | -1.97 | -0.0913 | -0.0277 | -0.0796
18 | AACTCAC | -0.0608 | -0.147 | -0.251 | -0.627 | 0.0506 | -0.582 | -0.868 | -0.164 | -0.068 | -0.015
19 | CGTAGCA | 0.0142 | 0.0305 | 0.3 | 0.83 | -0.118 | 0.625 | -0.178 | 0.0691 | -0.0381 | 0.0681
20 | CGCTTCC | -0.107 | -0.0781 | 0.0973 | -0.0907 | -0.0883 | -0.343 | -0.154 | -0.135 | -0.0146 | -0.0803
21 | GATTGGT | -2.55 | -2.56 | -0.11 | -0.214 | -0.142 | -0.432 | -3.03 | -0.063 | 0.105 | -0.022
22 | CGTTCAT | -0.132 | 0.013 | 0.0338 | -0.0652 | -0.0775 | 0.00353 | -0.279 | -0.0594 | 0.0638 | 0.0412
23 | CTCATCG | -0.0668 | 0.09 | -0.802 | 0.184 | 0.131 | -0.948 | 0.124 | 0.0175 | -0.0111 | -0.0359
24 | ACTGAAC | 0.0263 | -0.0553 | -0.0617 | 0.55 | -0.0253 | 0.949 | 0.0457 | -0.0115 | -0.112 | 0.0694
25 | TTAGGGT | 0.142 | 0.105 | 0.442 | 1.35 | 0.0625 | 1.77 | 0.031 | 0.209 | 0.00403 | 0.0826
26 | TGCGAAT | 0.0175 | -0.0116 | -0.15 | 0.36 | -0.0646 | 0.33 | 0.00756 | -0.18 | -0.08 | -0.0206
27 | AGCAAAA | -0.063 | 0.134 | 0.142 | 0.456 | 0.151 | 0.339 | -0.226 | 0.0576 | 0.014 | 0.163
28 | ACAGTCT | 0.0887 | 0.0348 | -0.416 | -2.11 | 0.101 | -0.833 | 0.103 | 0.0753 | 0.0201 | -0.0154
29 | GAGTTAA | -0.0253 | 0.064 | 0.252 | 0.533 | 0.0709 | 1.17 | -2.43 | 0.124 | 0.103 | 0.116
